Measured values from publication PMC4336329 (PLoS ONE, 2015).
Hit rate of the full screen: of about 310,000 compounds, about 2,200 (0.71%) showed an effect of 50% or more. Effects have a minus sign here. This is one part of the list.

molecular target: human ether-à-go-go-related gene (hERG) potassium channel (human, UniProt Q12809); assay: primary screen, population patch clamp on CHO cells stably expressing hERG
Sequence (Q12809 whole entry, looked up): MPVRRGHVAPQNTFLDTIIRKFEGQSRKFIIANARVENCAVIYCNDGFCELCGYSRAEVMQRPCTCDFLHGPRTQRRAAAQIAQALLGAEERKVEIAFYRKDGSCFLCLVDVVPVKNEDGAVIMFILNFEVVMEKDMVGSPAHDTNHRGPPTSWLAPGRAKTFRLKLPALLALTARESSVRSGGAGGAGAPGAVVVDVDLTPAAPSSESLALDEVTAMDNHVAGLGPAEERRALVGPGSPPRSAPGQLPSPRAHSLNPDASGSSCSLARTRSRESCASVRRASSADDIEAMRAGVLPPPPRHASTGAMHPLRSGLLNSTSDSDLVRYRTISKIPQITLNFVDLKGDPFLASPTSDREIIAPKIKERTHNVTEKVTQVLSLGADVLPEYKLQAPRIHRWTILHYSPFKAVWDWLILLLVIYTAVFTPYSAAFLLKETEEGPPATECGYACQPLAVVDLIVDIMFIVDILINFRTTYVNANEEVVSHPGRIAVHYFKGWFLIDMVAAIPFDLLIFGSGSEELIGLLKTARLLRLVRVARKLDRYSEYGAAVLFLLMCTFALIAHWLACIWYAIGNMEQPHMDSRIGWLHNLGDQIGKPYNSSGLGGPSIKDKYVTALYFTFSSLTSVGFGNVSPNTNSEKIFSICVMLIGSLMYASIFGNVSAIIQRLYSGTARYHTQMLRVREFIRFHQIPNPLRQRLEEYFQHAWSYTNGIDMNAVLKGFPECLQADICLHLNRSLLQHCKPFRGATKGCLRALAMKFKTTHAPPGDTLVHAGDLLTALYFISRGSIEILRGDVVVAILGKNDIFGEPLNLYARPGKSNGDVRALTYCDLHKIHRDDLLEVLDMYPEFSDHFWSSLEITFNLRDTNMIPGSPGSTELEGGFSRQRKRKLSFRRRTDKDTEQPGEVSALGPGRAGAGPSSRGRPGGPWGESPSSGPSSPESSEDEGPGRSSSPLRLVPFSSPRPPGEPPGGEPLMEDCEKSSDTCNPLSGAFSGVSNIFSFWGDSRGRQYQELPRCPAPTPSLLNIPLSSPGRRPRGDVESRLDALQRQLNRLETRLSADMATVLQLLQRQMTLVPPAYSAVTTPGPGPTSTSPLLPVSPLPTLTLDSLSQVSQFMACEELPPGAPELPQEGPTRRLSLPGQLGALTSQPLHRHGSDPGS

Structure (SMILES) | hERG current change (%, negative = inhibition) at 1uM
COc1ccc(C(=O)n2nc(C)cc2C)cc1Br | 5%
CC(NS(=O)(=O)c1ccccc1Cl)C1CC2CCC1C2 (stereo not drawn) | 9.87%
Cc1cc(NC(=O)COc2ccccc2C)no1 | 10.4%
O=C1CC(c2ccccc2)CC(O)=C1C=Nc1ccccc1 (stereo not drawn) | 10.2%
Cc1ccc(S(C)(=O)=O)cc1C(=O)Nc1ccc(S(=O)(=O)Nc2nccs2)cc1 | 6.65%
O=C(CC(c1ccccc1)C1CCCCC1=O)c1ccco1 (stereo not drawn) | 7.14%
Cc1ccc(NC(=O)CCS(=O)(=O)c2ccc(Br)s2)cc1 | -15.4%
CCOc1ccc(N2C(=O)CC(Sc3ncccn3)C2=O)cc1 (stereo not drawn) | 13.4%
Cc1ccc(S(=O)(=O)NC(CC(C)C)C(=O)N2CC(C)OC(C)C2)cc1 (stereo not drawn) | -7%
O=C(O)CCCCCn1c(SCc2cc(=O)n3cc(Cl)ccc3n2)nc2ccsc2c1=O | 4.33%
C=CCOc1ccc2ccccc2c1CNn1c(C)n[nH]c1=S | 22.6%
NCCCCCc1cn(CC(=O)NCCCCCCCCCCC(=O)N2CCNCC2)nn1 | -9.21%
CC1CCC(NC(=O)CCS(=O)(=O)c2ccc3c(c2)CCN3C(=O)C2CC2)CC1 (stereo not drawn) | -3.66%
COCCN(C(=O)COC(=O)CCc1c[nH]c2ccccc12)c1c(N)n(Cc2ccccc2)c(=O)[nH]c1=O | 2.23%
O=C(Cc1ccc(Cl)cc1)Nc1ccccc1C(=O)Nc1ccc(C(=O)O)cc1 | 18.9%
CCn1cc(C(=O)N[C@@H](C)C(=O)NCCCO)c(=O)c2cc3c(cc21)OCO3 | 15.9%
CC1CCCCN1C(=O)C1CCCCN1S(=O)(=O)c1cccc([N+](=O)[O-])c1 (stereo not drawn) | 5.88%
Cc1ccc(S(=O)(=O)CCC(=O)NCc2ccco2)cc1 | 1.96%
CC(=O)N1CCN(C(=O)c2cc3ccccc3o2)CC1 | 19.1%
Cc1ccc(/C=N/NC(=O)c2ccc(-n3cccc3)cc2)o1 | 10.4%
O=C(Nc1ccc(Cl)cc1)N1N=CCC1c1ccccc1 (stereo not drawn) | 5.62%
COc1cc(C=O)c(Br)cc1OCC(=O)NCc1ccccc1 | 12.6%
CCC1CC(C(=O)Nc2ccccc2)C(=O)O1 (stereo not drawn) | 10.4%

Structure (SMILES) | hERG current change (%, negative = inhibition) at 1uM
O=C(NCc1cnn(-c2ccccc2)c1)C1CCC(=O)N(C2CC2)C1 (stereo not drawn) | 13.4%
Cc1cnc(C(=O)OCC(=O)NCc2ccccc2)cn1 | 15%
COc1ccc2c3c([nH]c2c1)C1CC2C(CC(O)C(OC)C2CO)CN1CC3 (stereo not drawn) | -7.71%
COc1ccccc1C1C2=C(COC2=O)Nc2cc3c(cc21)OCO3 (stereo not drawn) | 10.3%
OC(c1ccccc1)c1ccncc1 (stereo not drawn) | -1.29%
CC(C)C(OC(=O)c1nsc(Cl)c1Cl)C(=O)NCc1ccccc1 (stereo not drawn) | 14.3%
Cl.Fc1ccccc1CNC1CN2CCC1CC2 (stereo not drawn) | 22%
C=CCn1c(N)cc(=O)nc1SCC(=O)N(c1ccccc1)c1ccccc1 | 13.8%
O=c1[nH]cnc2c1oc1ccccc12 | 12.7%
O=C(c1ccc(Cl)cc1)c1nnc(-c2ccncc2)o1 | 11.2%
CCOC(=O)C1=C(Cn2cnc3ccccc32)NC(=O)NC1c1ccc(Cl)cc1 (stereo not drawn) | -2.53%
S=c1[nH]nc(COc2ccccc2)n1/N=C/C=C/c1ccco1 | 17.6%
CCOC(=O)c1cc(C#N)c(C)nc1N(CC)CC | 3.29%
COc1ccc(CCCC(=O)Nc2ccc(F)cc2)cc1 | 8.9%
Cc1ccc(NC(=S)NNC(=O)c2cn(C)nc2C)cc1 | 3.7%
O=C(c1cccc(C(F)(F)F)c1)N1CCN(S(=O)(=O)c2ccc(Cl)s2)CC1 | 3.68%
COc1ccc(Cc2nc3ccc(C(=O)NCC4COCCO4)cc3o2)cc1 (stereo not drawn) | 10.4%
CC(=O)c1c(C)[nH]c(C(=O)OCC(=O)Nc2cc(Cl)ccc2[N+](=O)[O-])c1C | 10.5%
COc1ccc(Cl)cc1S(=O)(=O)Nc1noc2ccccc12 | 12.1%
Cc1ccc(-c2cc(C(=O)OC3CCOC3=O)c3ccccc3n2)c(C)c1 (stereo not drawn) | 6.74%
CN(C)CCNC(=O)c1ccc(Sc2ccc(Br)cc2)c([N+](=O)[O-])c1 | -3.92%
COc1ccc(CNC(=O)c2ccccc2NC(=O)C2=CSCCO2)c(OC)c1 | 4.38%
COc1ccc(C)cc1NS(=O)(=O)c1cn(C)c(=O)n(C)c1=O | 6.01%

Structure (SMILES) | hERG current change (%, negative = inhibition) at 1uM
Cc1ccccc1C1c2[nH]c3ccccc3c2C[C@H]2C(=O)N(C3CCN(Cc4ccccc4)CC3)CC(=O)N12 (stereo partly drawn) | 9.64%
Cc1ccc(N=Cc2c(O)cc(C)oc2=O)c(C)c1 | 18%
O=C(CSc1nc2ccccc2s1)Nc1ccc2c(c1)OCO2 | 3.45%
CCCC(=O)Nc1ccc(C(=O)NN=C(C2CC2)C2CC2)cc1 | -0.687%
C=CCc1c(C)c(C#N)c2nc3ccccc3n2c1N1CCCCC1 | 12.6%
Cc1ccc(S(=O)(=O)Cn2nnnc2C(c2ccccn2)N2CCN(c3ccccc3)CC2)cc1 (stereo not drawn) | 8.08%
COc1cc(Oc2ccccc2)nc(N)n1 | 8.73%
CC1CCCC(NC(=O)C2CCN(S(=O)(=O)N3CCCCC3)CC2)C1C (stereo not drawn) | 6.1%
FC(F)(F)c1cccc(NC(=S)Nc2cccc(NC(=S)Nc3cccc(C(F)(F)F)c3)n2)c1 | 6.75%
COc1ccc(CCNC(=O)c2cccc(S(=O)(=O)N3CCc4ccccc4C3)c2)cc1 | 8.51%
CS(=O)(=O)N1CCC(C(=O)N2CCc3ccccc3C2)CC1 | 3.91%
O=C(O)c1cc(-c2c[nH]c3ccccc23)nc2cc3ccccc3cc12 | 8.22%
Cc1ccccc1/C=N/n1c(-c2ccccn2)n[nH]c1=S | 11.1%
CSc1nnc([C@H](C)NC(=O)OC(C)(C)C)o1 | -2%
O=C(CN1CCN(S(=O)(=O)c2ccccc2)CC1)Nc1ccccc1Cl | 2.63%
CCOC(=O)c1c(NC(=O)CSc2nnc(C)s2)sc2c1CCC(C)C2 (stereo not drawn) | 14%
COc1ccc(Oc2nc(C)cc(C)c2C#N)cc1 | 10.5%
Nc1nonc1-n1nnc(C(=O)N/N=C/c2ccccc2Cl)c1CN1CCOCC1 | -8.08%
COC(=O)c1ccccc1NS(=O)(=O)c1ccc(NC(C)=O)cc1 | 9.56%
CCOC(=O)C1C(=O)C=C(c2ccc(OC)cc2)CC1c1ccco1 (stereo not drawn) | 6.46%
Oc1nc(-c2ccc(Br)cc2)n2ccncc12 | 6.78%
O=c1[nH]c(CN2CCN(c3ncccn3)CC2)nc2c(Br)cc(Br)cc12 | 6.17%
O=C(O)c1cc2ncc(-c3[nH]ncc3[N+](=O)[O-])cn2n1 | 12%

Structure (SMILES) | hERG current change (%, negative = inhibition) at 1uM
COc1cc(CNCCN(C)C)ccc1OCc1c(F)cccc1Cl.Cl | -13.4%
N#CC1=C(N)N2C(=C(C#N)C13CCN(Cc1ccccc1)CC3)Nc1ccccc12 | -11%
CS(=O)(=O)N(Cc1ccc(Cl)cc1)c1ccc(C(=O)NCc2ccccn2)cc1 | -0.436%
Cc1cc(C(C)(C)C)cc(S(=O)(=O)NCCc2ccncc2)c1C | 10.3%
Cc1cccc(NC(=O)CCS(=O)(=O)c2ccccc2)n1 | 10.6%
CCN(CC(=O)NC1CCCC1)S(=O)(=O)c1ccc(Br)cc1 | 14.2%
Cc1ccc(Oc2ncccc2/C=N/OCc2ccc(Cl)cc2Cl)cc1 | 7.61%
CCCCn1c(N)c(N(CCOC)C(=O)COC(=O)c2cc(CCC)c(C)s2)c(=O)[nH]c1=O | 6.81%
COc1ccc(C2(C)CC(=O)NC2=O)cc1 (stereo not drawn) | 9.68%
CC(=O)c1ccc(NC(=O)Nc2ccc([N+](=O)[O-])cc2)cc1 | 14.7%
Cc1ccc(-n2c(SCC(=O)Nc3ccc4c5c(cccc35)CC4)nc(O)c(C)c2=O)cc1 | 20.3%
COc1cccc(/C=C/C(=O)OCC(=O)Nc2nnc(-c3ccccc3)o2)c1 | 7.81%
COc1cc(NC(=O)C/C(C)=N/NC(=O)Cc2ccc(Cl)cc2)c(OC)cc1Cl | 1.81%
NC(=O)[C@@H]1CCCNc2c(F)cc([N+](=O)[O-])cc2C(=O)N[C@@H](CO)C(=O)NCC(=O)N1 | 9.46%
Cc1ccsc1C(C(=O)NC(C)(C)C)N(Cc1ccco1)C(=O)c1csnn1 (stereo not drawn) | 10.4%
O=C(NNC(=O)c1c(F)cccc1F)c1ccccc1OC(F)(F)F | 12.9%
COc1ccc(N(CC(=O)N2CCOCC2)S(C)(=O)=O)cc1 | 16.4%
O=C(CSCc1cccc(Cl)c1)OCc1nc2ccsc2c(=O)[nH]1 | -1.9%
Nc1nonc1-n1nnc(C(=O)N/N=C/c2cccc(Cl)c2)c1CSc1ccccc1 | 13.6%
CNS(=O)(=O)c1cccc(C(=O)OCC(=O)Nc2ccccc2OC(F)F)c1 | 6.97%
O=C(CSc1nc2[nH]ncc2c(=O)n1-c1ccccc1)N1CCCCCC1 | 10.3%
